In article PMC12136788:
The other results are listed elsewhere or left out.

T1: UNK ZnF1-3 (human, UniProt Q9C0B0 31-174)
T1 sequence: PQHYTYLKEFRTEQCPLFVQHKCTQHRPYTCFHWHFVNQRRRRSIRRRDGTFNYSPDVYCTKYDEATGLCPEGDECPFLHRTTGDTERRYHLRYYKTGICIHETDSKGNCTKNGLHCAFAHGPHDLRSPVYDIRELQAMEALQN

B1: chr19:16406628:16406629:+_ENSMUSG00000024639_ENSMUST00000025541|mus_hu|FALSE|FALSE (ssRNA)
RNA: GGGAGUUCUACAGUCCGACGAUCGACACUUUGUAAGUCAAAGGGGUAUUCGAUGAUCCCUGUGGUGGGGACUCGAACUCUAAGCACAUCUUGUUGCGUAGGCAGGUAGGCAGGGUCAGCUACGCGGUCCAAGUCAUUAAGAUACAACAGAGGAUUGAGCAUCA
B2: 92970762_92970882_2270_CDS_ENSG00000004766_ENST00000305866|human|control|control (ssRNA)
RNA: GGGAGUUCUACAGUCCGACGAUCUUCCGUGGCUACCACUCUUUCUGCCAACCCAUACAGCGUAUCCCCAGAUGUCAAAACCACUAGGUGACUGAGGUGUGGACUUGGCACCUUCUCCUUUCUUUCUUCUGCUGCUGUGAGUGUCAACAGAGGAUUGAGCAUCA
B3: chr2:27535424:27535425:-_ENSG00000115204_ENST00000380044|hu_hu|motif|central (ssRNA)
RNA: GGGAGUUCUACAGUCCGACGAUCUUUGGCCCAGUUGUCCUGGGCUGACAGUCCAUUAAGUGCCCCUACCAGUGGGAGAAAGCAGCCGGGAAAACACGGGGCAAAGCCCCCCUGAUCCAACAACAUCUUCUUCAGUGCAUCCACCAACAGAGGAUUGAGCAUCA
B4: chr2:114342542:114342543:-_ENSMUSG00000057147_ENSMUST00000102542|mus_mus|FALSE|FALSE (ssRNA)
RNA: GGGAGUUCUACAGUCCGACGAUCCUGGGAUUAAAGGUGUACACCACUGCCUGGCUACGCAUGAUUCUUAAGACAGUAAAACUAUUGUGUUAUAGGAGUGUAAUGAUGCAUAUAUGUCUUUGAACAUUUGUUAAAUCCCGUGGACAACAGAGGAUUGAGCAUCA
B5: chr7:20150648:20150649:-_ENSMUSG00000044709_ENSMUST00000117222|mus_mus|FALSE|FALSE (ssRNA)
RNA: GGGAGUUCUACAGUCCGACGAUCCUUGAAAGAAUAGGAAAUUAUGUCACUACAUCGAAGCAAGGCCUCGGCCUGUACACCUAUGGGAGUCUGCAGUUGGGAAACGUAGAAGUUGGCCACAUCCAGGUCUGUGGCUCCAAACUGCAACAGAGGAUUGAGCAUCA
B6: chr7:56045873:56045874:+_ENSG00000146729_ENST00000322090|hu_hu|FALSE|FALSE (ssRNA)
RNA: GGGAGUUCUACAGUCCGACGAUCCUUUUUGGCUAGGAGAUUGGAGUGGGCAUCUUUUCUUGGAUCAACUUUCCGGACAAAUAAGGAUUUUAGCCAGCUGUCUUCUCGAGAUCUGUUGCUGGAAGAUGUCCAUGUCCGGAGCCUCAACAGAGGAUUGAGCAUCA

What follows are binders tested against T1, UNK ZnF1-3 (assay: nsRBNS (natural sequence RNA bind-n-seq); RBNS binding buffer (assumed for nsRBNS): 25 mM Tris pH 7.5, 150 mM KCl, 3 mM MgCl2, 0.01% Triton X-100, 500 ug/ml BSA, 20 U/ml SUPERase-In, 4 C; UNK is unkempt and MSI1 is Musashi-1; names of the RNAs are library labels; protein concentration not given here; high values mean tight binding).
Work on B1 yielded a binding signal of 1 enrichment R. With B2 the binding signal was 0.655 enrichment R. B3 was tested, and the binding signal was 1.14 enrichment R. B4 showed a binding signal of 1.18 enrichment R. B5 was tested, and the binding signal was 0.807 enrichment R. B6 was tested, and the binding signal was 0.343 enrichment R.
